From a collection of fitness landscapes (doi:10.1016/j.celrep.2020.107928)
Whole data set: some 81,000 sequences, median “one-hybrid fitness for binding NBS DNA” near -0.1, cut for the highest 2% near 0.36. The list shows a part of the results.

B1: Caulobacter ParB omega fusion; a variant is named by its letters at X, in order, B8GW30 (parent)
chain: MESVVVGEPGMSEGRRGLGRGLSALLGEVDAAPAQAPGEQLGGSREAPIEILQRNPDQPRRTFREEDLEDLSNSIREKGVLQPILVRPSPDTAGEYQIVAGERAWRAAQRAGLKTVPIMVRELDDLAVLEIGIIENVQRADLNVLEEALSYKVLMEKFERTQENIAQTIGKSXSHVANXMRLLXLPDEVQSYLVSGELTAXHARAIAAAADPVALAKQIIEGGLSVRETEALARKAPNLSAGKSKGGRPPRVKDTDTQALESDLSSVLGLDVSIDHRGSTGTLTITYATLEQLDDLCNRLTRGI

Variants of: B1
Test: one-hybrid fitness for binding NBS DNA (the Noc-binding site; scaled: cognate 1, non-cognate 0); higher = stronger binding
Details: with NBS DNA site
Outline: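 On M9-minus-histidine containing 0.1 mM IPTG and 5 mM 3-AT, E. coli USO cells with a HIS3 reporter, site 19 bp from the promoter, grew 48 hours at 37°C to select Caulobacter ParB libraries randomised at four specificity codons. Plasmids from before and after were Illumina-sequenced, with three replicate libraries pooled and variants under 10 reads left out. Fitness is the log change in variant-to-wild-type read ratio, rescaled against cognate and non-cognate.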

Variant	one-hybrid fitness for binding NBS DNA
YEAN	≤ 0.2
PCAK	≤ 0.2
AWKS	≤ 0.2
SISG	≤ 0.2
PGCA	≤ 0.2
STPI	≤ 0.2
HLLL	≤ 0.2
LPLG	≤ 0.2
YDAM	≤ 0.2
WCHG	≤ 0.2
QMFV	≤ 0.2
MRPE	≤ 0.2
QYSV	≤ 0.2
KLPT	≤ 0.2
AASS	≤ 0.2
IKSR	≤ 0.2
KCNR	0.223
CRCT	≤ 0.2
VYMR	≤ 0.2
NVHR	≤ 0.2
LAVM	≤ 0.2
IPKS	≤ 0.2
PPHM	≤ 0.2
MDPD	≤ 0.2

Variant	one-hybrid fitness for binding NBS DNA
HNLY	≤ 0.2
RGRD	≤ 0.2
QTTE	≤ 0.2
VAMA	≤ 0.2
AYNN	≤ 0.2
LEPV	≤ 0.2
MWVR	≤ 0.2
TSIC	≤ 0.2
LLVA	≤ 0.2
HSTN	≤ 0.2
RSEH	≤ 0.2
RREV	≤ 0.2
HKIS	≤ 0.2
VAKC	≤ 0.2
TKIK	≤ 0.2
QRGT	0.822
QVVW	≤ 0.2
CIHS	≤ 0.2
VLTV	≤ 0.2
QALW	≤ 0.2
STRV	≤ 0.2
ITGI	≤ 0.2
PIGC	≤ 0.2
NTNP	≤ 0.2

Variant	one-hybrid fitness for binding NBS DNA
TGIC	≤ 0.2
CSQS	≤ 0.2
CTAN	≤ 0.2
FQHI	≤ 0.2
QACR	0.447
SYLG	≤ 0.2
GGTS	≤ 0.2
MHPK	≤ 0.2
MVAC	≤ 0.2
NVVA	≤ 0.2
PKVR	≤ 0.2
KPIG	≤ 0.2
RGGE	≤ 0.2
SEHL	≤ 0.2
AGYG	≤ 0.2
GFVT	≤ 0.2
LRCP	≤ 0.2
QRGI	0.37
RGAL	≤ 0.2
TGLG	≤ 0.2
AECR	≤ 0.2
MIRL	≤ 0.2
KKAV	≤ 0.2
LVGL	≤ 0.2

Variant	one-hybrid fitness for binding NBS DNA
THGA	≤ 0.2
QVWW	≤ 0.2
NSLM	≤ 0.2
VNLG	≤ 0.2
SPLY	≤ 0.2
IAMR	≤ 0.2
VCTY	≤ 0.2
MQSC	≤ 0.2
IWAG	≤ 0.2
WVWS	≤ 0.2
KICD	≤ 0.2
CDYF	≤ 0.2
VCMS	≤ 0.2
EHNG	≤ 0.2
HNTA	≤ 0.2
TMCA	≤ 0.2
AAFR	≤ 0.2
HTRW	≤ 0.2
GGTE	≤ 0.2
DFKE	≤ 0.2
WEYS	≤ 0.2
FNYS	≤ 0.2
RAMF	≤ 0.2
WACT	≤ 0.2

Variant	one-hybrid fitness for binding NBS DNA
MDSM	≤ 0.2
SPGA	≤ 0.2
NYLE	≤ 0.2
NNWG	≤ 0.2
TSNA	≤ 0.2
AMMG	≤ 0.2
SVQF	≤ 0.2
ANPM	≤ 0.2
YPAE	≤ 0.2
EVKT	≤ 0.2
CRIC	≤ 0.2
QEPN	≤ 0.2
NVVR	≤ 0.2
YLYL	≤ 0.2
CHST	≤ 0.2
VTMV	≤ 0.2
PLHC	≤ 0.2
MDTE	≤ 0.2
GTGE	≤ 0.2
VFQR	≤ 0.2
YPKV	≤ 0.2
FPSG	≤ 0.2
SCEN	≤ 0.2
VPNG	≤ 0.2

Variant	one-hybrid fitness for binding NBS DNA
GDRG	≤ 0.2
SRQM	≤ 0.2
MDLS	≤ 0.2
NHDG	≤ 0.2
ADIR	≤ 0.2
NWNE	≤ 0.2
PSLA	≤ 0.2
AKIC	≤ 0.2
EAHS	≤ 0.2
EEER	≤ 0.2
RMMR	0.332
EWAW	≤ 0.2
SVRY	≤ 0.2
LHCR	≤ 0.2
QGWC	≤ 0.2
PLTL	≤ 0.2
YAAE	≤ 0.2
RVVR	0.3
NTRI	≤ 0.2
HRAR	≤ 0.2
GEKG	≤ 0.2
LMKM	≤ 0.2
PILV	≤ 0.2
NQLW	≤ 0.2

Variant	one-hybrid fitness for binding NBS DNA
CKQC	≤ 0.2
SYDT	≤ 0.2
QMTV	≤ 0.2
QTHY	0.384
ESYS	≤ 0.2
GDME	≤ 0.2
VHPH	≤ 0.2
KAPT	≤ 0.2
PFKC	≤ 0.2
WPWT	≤ 0.2
KSCN	≤ 0.2
SERA	≤ 0.2
EAYT	≤ 0.2
KNEM	≤ 0.2
GNIK	≤ 0.2
DTHE	≤ 0.2
TCLS	≤ 0.2
YNLS	≤ 0.2
RRTL	≤ 0.2
REDD	≤ 0.2
PLAL	≤ 0.2
PGSC	≤ 0.2
MQAG	≤ 0.2
CPVF	≤ 0.2

Variant	one-hybrid fitness for binding NBS DNA
TTYG	≤ 0.2
RGFH	≤ 0.2
KSME	≤ 0.2
DYYI	≤ 0.2
TLDA	≤ 0.2
CRII	≤ 0.2
WPRC	≤ 0.2
FKLL	≤ 0.2
LRHH	≤ 0.2
ANWR	≤ 0.2
TMGR	≤ 0.2
MQTL	≤ 0.2
GNNW	≤ 0.2
QTYF	≤ 0.2
AVTI	≤ 0.2
ECNI	≤ 0.2
YVRT	≤ 0.2
SELC	≤ 0.2
LAFQ	≤ 0.2
MTRN	≤ 0.2
MLPP	≤ 0.2
TAFC	≤ 0.2
ERWS	≤ 0.2
SSSE	≤ 0.2

Variant	one-hybrid fitness for binding NBS DNA
TNKS	≤ 0.2
HRSF	≤ 0.2
FYVW	≤ 0.2
HWLL	≤ 0.2
MHHS	≤ 0.2
VKSQ	≤ 0.2
PQQT	≤ 0.2
QVEG	≤ 0.2
PGHT	≤ 0.2
STNA	≤ 0.2
YSKA	≤ 0.2
LLFG	≤ 0.2
TNIW	≤ 0.2
VGKV	≤ 0.2
RANG	≤ 0.2
NHSF	≤ 0.2
PRLC	≤ 0.2
ELRR	≤ 0.2
RQDR	≤ 0.2
QPGP	≤ 0.2
TTSM	≤ 0.2
TAII	≤ 0.2
TAKP	≤ 0.2
HRRR	0.323

Variant	one-hybrid fitness for binding NBS DNA
SRPL	≤ 0.2
CAYF	≤ 0.2
VDFT	≤ 0.2
DDMC	≤ 0.2
RCYR	0.518
FTPT	≤ 0.2
SCLP	≤ 0.2
TMTM	≤ 0.2
FVHL	≤ 0.2
TPAL	≤ 0.2
TFDY	≤ 0.2
GADR	≤ 0.2
VDQK	≤ 0.2
GILS	≤ 0.2
GQSV	≤ 0.2
DFWS	≤ 0.2
KGPS	≤ 0.2
TITY	≤ 0.2
RSTV	≤ 0.2
LPIS	≤ 0.2
GRCN	≤ 0.2
APVQ	≤ 0.2
FFCR	≤ 0.2
QLDL	≤ 0.2

Variant	one-hybrid fitness for binding NBS DNA
DAFR	≤ 0.2
QQHD	≤ 0.2
CPLR	≤ 0.2
HAGC	≤ 0.2
HYSY	≤ 0.2
YATP	≤ 0.2
MGES	≤ 0.2
PSFY	≤ 0.2
KRPR	0.239
TLFS	≤ 0.2
PFLR	≤ 0.2
LNCA	≤ 0.2
MCHS	≤ 0.2
CTRD	≤ 0.2
QRTK	0.414
SYSV	≤ 0.2
LPFV	≤ 0.2
YTSP	≤ 0.2
GDAR	≤ 0.2
NAKC	≤ 0.2
YQPT	≤ 0.2
YGTM	≤ 0.2
PIFE	≤ 0.2
SERD	≤ 0.2

Variant	one-hybrid fitness for binding NBS DNA
PYHP	≤ 0.2
MYHR	≤ 0.2
HTMG	≤ 0.2
RHVV	≤ 0.2
LSDA	≤ 0.2
IIGF	≤ 0.2
TWNL	≤ 0.2
RNRT	0.391
GMVG	≤ 0.2
GSHG	≤ 0.2
ANSV	≤ 0.2
ANSY	≤ 0.2
SSDI	≤ 0.2
ICQG	≤ 0.2
PKYV	≤ 0.2
RQHW	≤ 0.2
PLVG	≤ 0.2
ILWS	≤ 0.2
PVTP	≤ 0.2
IACY	≤ 0.2
PTQP	≤ 0.2
FKNG	≤ 0.2
VQHG	≤ 0.2
EPGG	≤ 0.2

Variant	one-hybrid fitness for binding NBS DNA
ITNQ	≤ 0.2
GKKW	≤ 0.2
HHIS	≤ 0.2
RVVK	≤ 0.2
HEKE	≤ 0.2
NCDT	≤ 0.2
GTAV	≤ 0.2
WTNF	≤ 0.2
NVRY	≤ 0.2
MQHN	≤ 0.2
VQHC	≤ 0.2
ICTS	≤ 0.2
IQDG	≤ 0.2
GQKG	≤ 0.2
QKGL	≤ 0.2
TPGR	≤ 0.2
HHDY	0.251
FKQS	≤ 0.2
